This is one part of the list.

The test has as its system PfAP2-HC AP2 domain (GST-tagged). As to the kind of experiment: gcPBM binding intensity (ln(normalized median fluorescence intensity)); higher = stronger DNA binding. The essentials:
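Plasmodium falciparum DNA-binding domains carrying a GST tag were expressed in E. coli and applied for 1 h, at about 25 μg on average, to an Agilent 4 × 180k array. The array held primer-extended double-stranded 36-bp intergenic genomic probes together with negative controls, and binding took place in 1× PBS with 1% milk, 0.2 mg/ml BSA, 0.5% salmon testes DNA and 0.03% Triton X-100. An Alexa488 anti-GST antibody detected bound protein, and the array was scanned at 488 nm. Binding intensity is taken as the highest Masliner-normalised natural-log median intensity across replicate spots of either probe orientation.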
Regarding “TGAATAAATAGACACACACACATATATAAATATGTA [CACACA_site6159]”, the “gcPBM binding intensity (ln)” value is 10.7.
The value for “AAATATTTTAACGAGAGTACATAATAACAATTTATG [XGTACX_site3865]” was 9.64.
For “GAAAGAATAAAATTTACACACATATATAAATACATA [CACACA_site5273]”, the “gcPBM binding intensity (ln)” value came to 9.87.
The same measure for “AAAAAAAAAAAATACACACACACATATATATATATA [CACACA_site731]”: 10.2; for “TTTTTTTTTTTTTATTGTACTAAATTATAGAGGGGA [XGTACX_site2609]”: 9.18.
As for “TAGTTGCACATGTATACACACAAAAAATATTTTATG [CACACA_site475]”, the “gcPBM binding intensity (ln)” value is 9.87.
The value for “AAAGAAAGGAATACGACACACAAAAAAAAAATATAT [CACACA_site1934]” was 10.2; that for “AATAAATATAGGTACACACACAAATATGTACATATC [CACACA_site6976]” was 10.2.
As for “AAGTGGTTATAATCAACACACGTGGAATGTACTTTA [CACACA_site3700]”, the “gcPBM binding intensity (ln)” value stood at 9.75.
The value for “AAGAAACCATAATATGCATGCACATATTAATAAATA [TGCATGCA_site693]” was 9.75; that for “TTATAATTTTAATGTGCACACAATTAAAATATTATA [CACACA_site5172]” was 9.61.
The value for “TTTTGTTTATGTGTGCATTATATTATATTTTTTATT [TGCATGCA_negctrl_site146]” was 10.1.
The value for “TATTGACAAAAAAAAAAAAGGTAAAAAAGAAAGAAA [GTGCAC_negctrl_site418]” was 9.43.
As for “TATAAATAAATATACACACACACATATAAATATGTA [CACACA_site6504]”, the “gcPBM binding intensity (ln)” value was 10.4.
The value for “TGTAAGAAATTGAGCGCACACATACATCTGTGGGAT [CACACA_site4945]” was 10.
The same measure for “CTACATACAAGAATTAAACACACACTAATTATAAAT [CACACA_site8986]”: 10.4; for “CCTCAATATTCACATACACACAATATCATCGAAGTA [CACACA_site1676]”: 9.73.
In the case of “TTCTTTTTTTTTCTGGGTACATATATTCCAATCACT [XGTACX_site4770]”, the “gcPBM binding intensity (ln)” value was 9.79.
The same measure for TTATAAAAGACAAAAGTGCATATATACATATGTATA: 9.72; for “AATATAATTATATGTGGTACAGAAATAATATAAAAT [XGTACX_site2366]”: 10.1; for “AAATAAATAAATTAACGTACATAATAACATTAATAT [XGTACX_site8567]”: 9.71.
The same measure for “ATATATATATATGTATGTACACATATTTTTTAACTT [XGTACX_site431]”: 9.81; for “TATATATATATTATTAGTACTTATTTTTTTTCATAT [XGTACX_site1279]”: 9.72; for “TGTAAAACCTCCTACACACACCAATTAACTATTCTA [CACACA_site7074]”: 10.1.
Turning to “TTATATTATAGACACACACACAAAAAAAAAAAAAAA [CACACA_site3816]”, the “gcPBM binding intensity (ln)” value stood at 10.1.
“TATAACTTTTATAGGTGTACCCAATATTATATATAG [XGTACX_site7673]”: the “gcPBM binding intensity (ln)” value amounted to 9.54.
The same measure for “CCATCTTTTTTACGATGTACAAGTATAAGGTATACG [XGTACX_site2697]”: 9.43; for “TTTATATGTTTTGTATTTTTAATAAATATTTTATTA [TGCATGCA_negctrl_site20]”: 9.62.
The value for “TATATATAATAAGAAGGTACACGTAAGTAATAATTT [XGTACX_site934]” was 9.91; that for “TTGAATTAAAAACATACATGCATATATATATATATA [TGCATGCA_site319]” was 9.74.
The value for “TTATAAAATGGGCAAACACACACAAAAAAAAGATAT [CACACA_site8476]” was 10.9; that for “AATAAATTACTATGTACACACATAAGAGTATAAATA [CACACA_site6940]” was 9.91.
Turning to “AAAAAGTTACATGGTGGTACTCAAATAAAATATTCT [XGTACX_site5993]”, the “gcPBM binding intensity (ln)” value turned out to be 9.62.
The value for “ATTATCCATGCATTTACACACACACTAAAAAAAATT [CACACA_site7848]” was 10.1.
The same measure for “ATGTATATATATTTGTGTACATATTTAGGAAATAAA [XGTACX_site2904]”: 9.78; for “AATTAAATTTATATGAATGTCAATTATATTGTTATA [XGTACX_negctrl_site261]”: 9.52; for “TTTATATGTGAAAAAAGTACAAGGAAAAAATTAAAC [XGTACX_site7269]”: 9.72.
The same measure for “TATTATGTTATATATTGTACATGTTTATTGAAACAA [XGTACX_site5605]”: 9.31; for “TTTTTTTTAGTATGAACACACATATATATTATAAAA [CACACA_site2935]”: 9.43.
On to “TATTAACAAAATATAGCACACATAAATATATATTTA [CACACA_site8005]”, for which the “gcPBM binding intensity (ln)” value came out at 9.73.
The same measure for “TTTTTTTTTTTTTGATGTACATAAATTAAGAATTAT [XGTACX_site7789]”: 9.46; for “AATATATCTTTTTACGGCAACCATATTTTTCCCATT [CACACA_negctrl_site963]”: 9.8; for “TGTCATATTATAAATTGTACAAATAGTATAATTATT [XGTACX_site581]”: 9.54.
The value for “ATTTTATCTTTAAACTGTACGTATTAATATGTAGAA [XGTACX_site3077]” was 9.52; that for “ATAAAAATATTATAAGCACACATATATATATATATA [CACACA_site8781]” was 9.61.

(Values after the supplement of paper PMC11417369.)
